# Test results taken from PubChem BioAssay AID1745853 (National Center for Advancing Translational Sciences (NCATS), 2022).
# Several values for one entry are separate records, joined by “and”; a condition that tells them apart may be missing. Equal values may be shown once. The list shows a part of the results. Further columns of the screen follow, without active or inactive calls.
# Tests used:
# Experiment in all cases: Primary Screen for Target Class Profiling of Small Molecule Inhibitors of Methyltransferases
# [1] = molecular target: Glycine N-methyltransferase (Homo sapiens) (UniProt Q14749); conditions: purified enzyme, MTase-Glo SAH luminescence; measured here: GNMT inhibition; at 40 µM; stronger effect = lower value
# Summary of the method: (§1)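 Each enzyme was assayed with SAM and its substrate. SAH formation detected by MTase-Glo luminescence; single-point 40 uM screen[…].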
# [2] = molecular target: Guanidinoacetate N-methyltransferase (Homo sapiens) (UniProt Q14353); conditions: purified enzyme, MTase-Glo SAH luminescence; measured here: GAMT inhibition; at 40 µM; stronger effect = lower value
# Summary of the method: as §1
# [3] = molecular target: Histamine N-methyltransferase (Homo sapiens) (UniProt P50135); conditions: purified enzyme, MTase-Glo SAH luminescence; measured here: HNMT inhibition; at 40 µM; stronger effect = lower value
# Summary of the method: as §1
# [4] = molecular target: Nicotinamide N-methyltransferase (Homo sapiens) (UniProt P40261); conditions: purified enzyme, MTase-Glo SAH luminescence; measured here: NNMT inhibition; at 40 µM; stronger effect = lower value
# Summary of the method: as §1
# [5] = molecular target: Phenylethanolamine N-methyltransferase (Homo sapiens) (UniProt P11086); conditions: purified enzyme, MTase-Glo SAH luminescence; measured here: PNMT inhibition; at 40 µM; stronger effect = lower value
# Summary of the method: as §1
# % is set by controls: 0 for no effect and ±100 for the full control effect.
SMILES,"activity change, negative = inhibition [1] [%]","activity change, negative = inhibition [2]","activity change, negative = inhibition [3] [%]","activity change, negative = inhibition [4]","activity change, negative = inhibition [5]"
COc1ccc2cc3n(c2c1)CC(C)(C(=O)NC1CCCC1)N(CCc1ccccc1)C3=O (stereo not given),-0.803,3.89%,2.69,-4.14%,-4.2%
Cc1ccc(NC(=O)Cn2nc3n(CCC(C)C)c(=O)c4ccc(C(=O)NCC(C)C)cc4n3c2=O)cc1,0.462,2.25%,0.013,-3.56%,-4.43%
COc1c2cc(c(O)c1OC)-c1cc(ccc1O)CCC(O)CCCC2 (stereo not given),0,4.47%,5.67,-8.27%,1.25%
Cc1ccccc1NC(=O)Cn1nc2n(CC(C)C)c(=O)c3ccc(C(=O)NC(C)C)cc3n2c1=O,0.707,4.25%,0.978,-13.6%,-6.29%
COCC(=O)N1CC(C(=O)O)C2(CCOCC2)C1 (stereo not given),-1.54,-2.53%,-0.121,-5.22%,-0.972%
O=c1cc(-c2ccccc2)oc2ccc(O)cc12,–,-20.8%,–,-36.4%,-19.8%
CCCn1c(=O)c2ccc(C(=O)NC3CCCC3)cc2n2c(=O)n(CC(=O)Nc3ccc(C)cc3)nc12,2.6,0%,4.01,3.45%,2.81%
C=C1CCC2C(C)(C)CCC[C@]2(C)[C@H]1C/C=C(\CO)C(=O)C(=O)O (stereo not given in full),-3.13,-14.9%,3.1,-30%,-13.8%
CCOC(=O)c1cc2n(n1)CC(C)(C(=O)NCCCOC)N(c1cc(C)ccc1C)C2=O (stereo not given),8.43,2.05%,13.1,9.51%,7.24%
O=C(Cn1nc2n(Cc3ccc(F)cc3)c(=O)c3ccccc3n2c1=O)NCc1ccccc1Cl,1.88,3.56%,-1.7,0.562%,0.967%
CC(C)[S+](=O)([O-])N1CCN(c2ccc(Cl)nn2)C(=O)C1,-7.32,-7.94%,-3.95,-14.4%,7.8%
CCc1ccc(-c2cc3n(n2)CC(C)(C(=O)NC2CCCCC2)N(C2CCCC2)C3=O)cc1 (stereo not given),-0.868,2.48%,-0.939,-4.38%,-3.7%
O=C(Cn1c(=O)oc2cc(S(=O)(=O)N3CCCCC3)ccc21)NCc1ccc(Cl)cc1,-3.74,-31% and 2.54%,0.34,-33% and -25.1%,-8% and -5.17%
CC(C)C[C@H](NC(=O)[C@@H]1O[C@H]1C(=O)O)C(=O)NCCCCN=C(N)N,-4.91,–,-4.28,–,–
CCOCc1cc(OC)c(-c2ccc(C[C@H](NC(=O)c3c(F)cccc3F)C(=O)O)cc2)c(OC)c1,0.445,-7.39%,12.1,-13.7%,2.54%
COc1cccc(CN2C(=O)c3cc4sccc4n3CC2(C)C(=O)NC2CCC(C)CC2)c1OC (stereo not given),-2.4,4.8%,1.53,-10.5%,-4.72%

SMILES,"activity change, negative = inhibition [1] [%]","activity change, negative = inhibition [2]","activity change, negative = inhibition [3] [%]","activity change, negative = inhibition [4]","activity change, negative = inhibition [5]"
CC1(C(=O)NC2CCCCC2)Cn2c(ccc2-c2ccccc2)C(=O)N1CCCN1CCCC1=O (stereo not given),-2.18,4.96%,1.53,3.32%,1.93%
COc1ccc(-c2cc3n(n2)CC(C)(C(=O)NCc2ccccc2OC)N(c2ccc(F)cc2C)C3=O)cc1 (stereo not given),-0.729,-0.144%,2.18,-9.66%,-2.52%
O=C(Cc1ccccn1)NCCNC(=O)c1ccc(-c2cccc(C(F)(F)F)c2)cc1,-5.73,-4.95%,-1.6,-7.52%,-0.908%
CC(C)CNC(=O)c1ccc2c(=O)n(CC(C)C)c3nn(Cc4c(F)cccc4Cl)c(=O)n3c2c1,5.83,0.302%,7.15,1.33%,3.62%
CC1CCN(S(=O)(=O)c2ccc3c(ccn3CCC(=O)NCc3ccc(N(C)C)cc3)c2)CC1,-1.12,6.91%,-4.4,-3.49%,0.587%
c1cc2c(cc1N1CCC(N3CCC4(CCNCC4)C3)CC1)OCO2,-3.99,-3.36%,-12.6,-5.84%,-6.23%
O=S(=O)(NCCn1c(-c2ccccc2)nc2ccccc21)c1ccccc1Cl,-8.16,-0.876%,-6.19,-13.8%,-3.9%
O=C(NC1CCCC1)N1Cc2c(sc3c2CCCC3)-n2cccc2C1c1ccc(F)cc1 (stereo not given),-4.64,0%,-2.36,-10.3%,0.473%
O=C(Cc1ccccc1F)Nc1cnc(-c2cccnc2)nc1,-3.19,1.71%,0.085,5.59%,-9.71%
COc1c(F)cccc1CN1CCOc2cc([S+](N)(=O)[O-])ccc2C1,-6.91,-10.9%,-5.22,-27.6%,-10.7%
CCC(C)NC(=O)c1ccc2c(=O)n(C)c3nnc(SCC(=O)Nc4cccc(F)c4)n3c2c1 (stereo not given),-2.21,0%,6.78,-12.4%,-2.73%
COc1ccc(C(C(=O)O)N2CCN(Cc3csc(C)n3)CC2)cc1C (stereo not given),-2.09,0.459%,1.44,1.36%,5.49%
O=C(NC1CCCCC1)[C@@H]1Cc2nc[nH]c2CN1Cc1ccc(Cl)cc1,-5.83,-3.14%,-3.12,-12.4%,-0.401%
CCCCS(=O)(=O)N1CCCC2(C1)Nc1cccnc1NC2=NCc1ccccc1 (stereo not given),-10.1,-7.06%,-4.73,-12.2%,-10.9%
CCCn1c(=O)c2ccc(C(=O)NC(C)C)cc2n2c(SCC(=O)Nc3cccc(OC)c3)nnc12,0.637,-4.9%,5.42,-6.14%,-6.25%
